# Reference: PubChem BioAssay AID624418 (National Center for Advancing Translational Sciences (NCATS), 2012)
# The whole screen tested about 410,000 compounds, of which about 530 (0.13%) were called active. The shares of active, inactive and inconclusive entries below differ from those in the screen. The call rests on the fitted dose curve; in most records, active means well fitted inhibition curve with a large enough effect; inconclusive means small, poorly fitted or top-dose-only effect, or another doubt; inactive means no such curve, though single readings can be large or run the other way. Potencies of inconclusive entries are doubtful fits and often do not repeat.
# Assay: qHTS of GLP-1 Receptor Inverse Agonists: Cytotox Screen
# Conditions: HEK293 cAMP-luciferase reporter cells, luminescence, 24 h; activity change, negative = inhibition: at 38.3 µM (top of the series) unless noted
# In short: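 To flag toxic compounds, the library was rerun on cells for 24 hr at 37 deg C and 5% CO2. Viability-linked luminescence was captured 12 min after adding luciferase detection reagent.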
# On the % scale 0 is the no-effect control and ±100 the full control effect; potency means the concentration at half of the fitted maximal effect.
SMILES,Potency,"activity change, negative = inhibition"
O=C(Nc1ccccc1)Nc1cccc(Cl)c1Cl,"inconclusive: 31.6 µM [inhibitor, single point]",–
Cc1ccc2nc(Cl)c3nnnn3c2c1,"inconclusive: 12.6 µM [inhibitor, single point]",–
CC[n+]1c(-c2ccccc2)c2cc(N)ccc2c2ccc(N)cc21,"inconclusive: 8.91 µM [inhibitor, partial curve, poor fit]",–
COc1ccccc1CC(=O)Nc1ccc([N+](=O)[O-])cc1O,"inconclusive: 10 µM [inhibitor, single point]",–
COc1ccc(Br)cc1/C=N/NS(=O)(=O)c1ccccc1,"inconclusive: 11.2 µM [inhibitor, single point]",–
Oc1ccc(O)c2c1C1(Cl)C(Cl)=C(Cl)C2(Cl)C1(Cl)Cl,"inconclusive: 25.1 µM [inhibitor, single point]",–
Cc1ccc(S(=O)(=O)CCSC(=N)N)cc1,"inconclusive: 10 µM [inhibitor, partial curve, poor fit]",–
Cc1ccc(C2(c3ccc(C)cc3)CC2C(=O)Nc2ccc([N+](=O)[O-])cc2O)cc1 (configuration not stated),"inconclusive: 12.6 µM [inhibitor, single point]",–
CCc1ccc(N2CC(O)(c3cccs3)[N+]3=C2SCCC3)cc1 (configuration not stated),"inconclusive: 15.8 µM [inhibitor, single point]",–
CCN(CCCl)c1cc(CN(C)C)cc(NC(=O)c2ccc(C(=O)Nc3cc(CN(C)C)cc(N(CC)CCCl)c3)cc2)c1,active: 2.82 µM,–
O=C(COc1ccc(Cl)cc1)Nc1ncc([N+](=O)[O-])s1,"inconclusive: 10 µM [inhibitor, single point]",–
CC(=NCCC1=CCCCC1)c1c(O)n(-c2ccccc2)c(=O)[nH]c1=O,"inconclusive: 28.2 µM [inhibitor, single point]",–
CN1CSC(=S)N(C)C1,"inconclusive: 10 µM [inhibitor, single point]",–
CCCN1CCC(NC(=O)c2cccc(Oc3ccccc3)c2)CC1,"inconclusive: 14.1 µM [inhibitor, single point]",–
CCCCn1c(O)c(C(=O)/C=C/c2ccc3c(c2)OCO3)c(=O)[nH]c1=O,"inconclusive: 11.2 µM [inhibitor, single point]",–
Cc1ccc(OCCSC2=NN2c2cc(C)nc(N)n2)cc1,–,inactive: 0.574%
Cc1ccccc1NC(=O)C(=Cc1ccc(C(=O)O)cc1)C(=O)Nc1ccccc1C,"inconclusive: 11.2 µM [inhibitor, partial curve]",–
CCOc1ccc(-n2c(O)c(N=Nc3ccc([N+](=O)[O-])cc3)c(=O)[nH]c2=O)cc1,"inconclusive: 28.2 µM [inhibitor, single point]",–
CCc1ccc(C(O)(CC(C)C)C(CN2CCOCC2)c2ccccc2)cc1 (configuration not stated),"inconclusive: 28.2 µM [inhibitor, single point]",–
CCNc1nc(N)c(C(=O)c2ccc(Cl)s2)s1,"inconclusive: 7.94 µM [inhibitor, partial curve]",–
Cc1cc(C)nc(-n2nc(C)c(Sc3ccc(F)cc3)c2N)n1,"inconclusive: 3.55 µM [inhibitor, full curve, poor fit]",–

SMILES,Potency,"activity change, negative = inhibition"
Cc1ccc(N(CCC#N)C(=O)CCl)cc1C,"inconclusive: 28.2 µM [inhibitor, single point]",–
COC1=C(Nc2ccccc2)C(=O)c2ccccc2C1=O,"inconclusive: 28.2 µM [inhibitor, single point]",–
CN1C(=O)C(=Cc2ccc(N3CCCCCC3)cc2)C(=O)N(C)C1=O,"inconclusive: 14.1 µM [inhibitor, single point]",–
CCOc1ccc2nc(NC(=O)c3cccc(-c4cc5ccccc5oc4=O)c3)sc2c1,–,inactive: 48.4%
Cc1ccc(CS(=O)(=O)c2ncc(Cl)c(C(=O)Nc3nnc(C(C)C)s3)n2)cc1,–,inactive: -4.66%
COc1ccccc1NC(=S)NC1CC2CCC1C2 (configuration not stated),"inconclusive: 25.1 µM [inhibitor, single point]",–
CN(C)C(=O)O/N=C(\N)COc1ccc(C(C)(C)C)cc1,active: 3.16 µM,–
Clc1ccc2nnnc(-c3ccccc3)c2c1,"inconclusive: 6.31 µM [inhibitor, partial curve]",–
O=c1[nH]c2ccccc2n1C1CCN(C(c2ccccc2)c2nnnn2Cc2ccccc2)CC1 (configuration not stated),"inconclusive: 3.16 µM [inhibitor, partial curve, poor fit]",–
COc1cc(/C=C2\SC(=S)N(CCC(=O)N3CCCCC3)C2=O)cc(OC)c1OC,"inconclusive: 28.2 µM [inhibitor, single point]",–
CN1CCC(O)(c2cccs2)C(C(=O)c2cccs2)C1 (configuration not stated),"inconclusive: 28.2 µM [inhibitor, single point]",–
COc1ccccc1-c1ccc2c(c1)C(C)(Cc1ccc(Cl)c(Cl)c1)C(=O)N2 (configuration not stated),"inconclusive: 28.2 µM [inhibitor, single point]",–
Cc1cc(C(=O)CCl)c(C)n1CCc1ccc(F)cc1,"inconclusive: 28.2 µM [inhibitor, single point]",–
CN(C)c1ccc(C(=O)N/N=C/C23CC[C@@H](O)CC2(O)CC[C@@H]2[C@@H]3CCC3(C)C(C4=CC(=O)OC4)CCC23O)cc1 (some centres not stated),"inconclusive: 2.51 µM [inhibitor, full curve]",–
CCN1CCN(c2nc(Nc3ccc(C)c(C)c3)nc(N)c2[N+](=O)[O-])CC1,"inconclusive: 28.2 µM [inhibitor, single point]",–
O=C(c1cc2cc(F)ccc2[nH]1)N1CCC2(CC1)OCCO2,–,inactive: -8.42%
O=C1/C(=C\c2ccccc2)CN(C(=O)CCN2CCCCC2)C/C1=C/c1ccccc1,"inconclusive: 7.94 µM [inhibitor, partial curve, poor fit]",–
CC(=O)NC(CCc1ccc(Cl)c(Cl)c1)c1cccc(O)c(=O)c1 (configuration not stated),"inconclusive: 12.6 µM [inhibitor, partial curve, poor fit]",–
COc1ccc(C2=CCC3CCCCN3C2)cc1OC (configuration not stated),"inconclusive: 10 µM [inhibitor, single point]",–
Cc1ccccc1CC(=O)N(CCN(C)C)CC1CCCN(Cc2ccccc2F)C1 (configuration not stated),"inconclusive: 22.4 µM [inhibitor, single point]",–
O=C(Nc1ccc(OC(F)(F)F)cc1)c1ccc2c(c1)no[n+]2[O-],active: 11.2 µM,–

SMILES,Potency,"activity change, negative = inhibition"
Oc1ccc(N=Nc2ccc3c(c2)OCCO3)c2cccnc12,"inconclusive: 12.6 µM [inhibitor, single point]",–
N#CC1(c2ccccc2)CCN(C2CC(=O)N(c3ccc(F)cc3)C2=O)CC1 (configuration not stated),–,inactive: 0.234%
CCCOC(=O)c1ccc(Oc2c(-c3ccc(O)cc3O)n[nH]c2C)cc1,"inconclusive: 11.2 µM [inhibitor, partial curve, poor fit]",–
O=c1[nH]c(=S)[nH]c(O)c1N=Nc1ccc(S(=O)(=O)N2CCOCC2)cc1,"inconclusive: 28.2 µM [inhibitor, single point]",–
CC(C)Nc1nc(NCCOc2ccccc2Cl)c2sc(-c3ccccc3)cc2n1,"inconclusive: 12.6 µM [inhibitor, partial curve, poor fit]",–
NC(Cc1ccc(C(F)(F)F)cc1)c1csc(Nc2nncc3ccccc23)n1 (configuration not stated),"inconclusive: 28.2 µM [inhibitor, single point]",–
CCc1ccc2c(c1)C1(NN=C(c3ccc(C)cc3)S1)C(=O)N2 (configuration not stated),"inconclusive: 10 µM [inhibitor, partial curve, poor fit]",–
Cn1cc(/C=C2\SC(=O)NC2=S)c2ccccc21,"inconclusive: 11.2 µM [inhibitor, partial curve, poor fit]",–
COc1ccc(CC(N)c2csc(Nc3nncc4ccccc34)n2)cc1 (configuration not stated),"inconclusive: 20 µM [inhibitor, single point]",–
Cc1ccccc1N1C(=O)NC(=O)/C(=C\c2cc(Br)c(N3CCOCC3)o2)C1=O,–,inactive: 14.6% [at 1.53 µM]
CCN(CC)C(=O)c1ccc(NC(=O)c2cccc(C(F)(F)F)c2)cc1,–,inactive: -3.57%
CCC1(CC(C)c2ccccc2)C(=O)NC(=O)NC1=O (configuration not stated),–,inactive: 9.72%
CC(C)c1ccc(/C=N/NC(=O)c2nnn(-c3nonc3N)c2CSC2=NCCS2)cc1,"inconclusive: 25.1 µM [inhibitor, single point]",–
COc1cccc(OC)c1C1=NCC(=O)Nc2c1oc1ccc(Br)cc21,"inconclusive: 0.891 µM [inhibitor, full curve, poor fit]",–
CC(=O)O/C(=C1\CC2C3CC=C4CC(OC(C)=O)CCC4(C)C3CCC2(C)C1=O)C(F)(F)F (configuration not stated),"inconclusive: 10 µM [inhibitor, single point]",–
CN(C)c1ccc(NC2=C(Cl)C(=O)c3ccccc3C2=O)cc1,"inconclusive: 8.91 µM [inhibitor, partial curve, poor fit]",–
O=C(c1cc(S(=O)(=O)N2CCOCC2)ccc1F)N1CCC2(CC1)OCCO2,–,inactive: -20.6%
C/C=C(\C)C(=O)N[C@@H](c1ccccc1)[C@@H](O)C(=O)O[C@H]1C[C@@]2(O)[C@@H](OC(=O)c3ccccc3)C3[C@](C)(C(=O)[C@H](OC(C)=O)C(=C1C)C2(C)C)[C@H](O)C[C@H]1OC[C@@]31OC(C)=O (some centres not stated),–,inactive: -34.6%
CC(NC(=O)Nc1cccc([N+](=O)[O-])c1)(C(F)(F)F)C(F)(F)F,"inconclusive: 20 µM [inhibitor, single point]",–
COc1ccc2cc1Oc1ccc(cc1)C[C@H]1c3cc(c(OC)cc3CCN1C)Oc1c(OC)c(OC)cc3c1[C@H](C2)N(C)CC3,"inconclusive: 7.08 µM [inhibitor, partial curve, poor fit]",–
